From the supplement of paper PMC11417369
The list shows a part of the results.

tested on: PfAP2-HC AP2 domain (GST-tagged); assay: gcPBM binding intensity (ln(normalized median fluorescence intensity)); higher = stronger DNA binding
How it was run: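 Binding intensity values are the highest Masliner-normalised natural-log median intensity among replicate spots of either probe orientation. The binding step lasted 1 h in 1× PBS with 1% milk, 0.2 mg/ml BSA, 0.5% salmon testes DNA and 0.03% Triton X-100, using GST-tagged P. falciparum DNA-binding domains expressed in E. coli on an Agilent 4 × 180k array of primer-extended double-stranded 36-bp intergenic genomic probes plus negative controls. Alexa488 anti-GST antibody and a 488 nm scan detected bound protein.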

Row | Sequence | gcPBM binding intensity (ln)
1 | GAAATATTGAAACACACACACAAACATATATATATA [CACACA_site1911] | 10.8
2 | TATAAAAAAAATAAAATAAAATAAAATAGAAAAATA [TGCATGCA_negctrl_site109] | 9.62
3 | CGTAATAATTAATGTTGTACCCACCAAAAAAATTAA [XGTACX_site8592] | 9.52
4 | ATTACATTTTTGTTTTGTACATATATTTTATAAACA [XGTACX_site494] | 9.65
5 | TTGTTTTGTAATAAAAAAAAAATAATATAATATAAT [XGTACX_negctrl_site300] | 9.49
6 | TATATTTATATATATACACACATAATAAAAAATATA [CACACA_site844] | 9.72
7 | GTAAGAAACAGACACACACACATATAAATATAAATA [CACACA_site6515] | 10.5
8 | TATTGAAAAAGTGGAAAAAAGTACATCATACGGGAA [CACACA_negctrl_site1091] | 10
9 | ATATTTATACTATACACACCCAATTTAAAAAAAAAT [CACACA_site1163] | 9.91
10 | GAAAAATTAAAATGTGGTACAATAAAATTTTATTCA [XGTACX_site5030] | 9.64
11 | AATTTATTAATACAAAGTACTTTCTAATATGAATTT [XGTACX_site8013] | 9.66
12 | TTATTGCGCACAATTTGTACATATATATATATAGAA [XGTACX_site7573] | 9.56
13 | AGTGTATTAAATTTTGAACACACAAAATAAAACATA [CACACA_site8483] | 9.88
14 | TTTTAATTTAAAAATTAATTTATATATATATATATA [TGCATGCA_negctrl_site447] | 9.31
15 | TTTAGACTTTTCTATAGTACATATTATATATATATA [XGTACX_site6532] | 9.6
16 | TAAATCACAAAATTATGTACTAAGAAGGAGCAACAT [XGTACX_site6742] | 9.68
17 | TATACCTTAATATACACACATACATATATATATATA [CACACA_site1339] | 9.83
18 | TATATACATTTTTATGTGCACATTTTATTTTTAAAT | 10.1
19 | TAACAAAGTAAAAGAACATGCAAACACGCACACAGA [TGCATGCA_site374] | 10.8
20 | GGGGAAAAAGCAGGTTGTACAGTGATGTCCATATAA [XGTACX_site7606] | 9.85
21 | TTTTTTTTTTTTTTTACACACTGCATACAAGAAAAA [CACACA_site5642] | 9.38
22 | AAAATACGAATATAAACATGCACCATATAGAACAAA [TGCATGCA_site925] | 9.88

Row | Sequence | gcPBM binding intensity (ln)
23 | TAAAATAAAATAAGTAGTACATATATAATTATATAT [XGTACX_site6733] | 9.63
24 | TACAAATATAGATGCACACACATATACATACCTATA [CACACA_site7094] | 10.3
25 | TTTTTACAAAAAAAAAAAAAAAAAATAAAAATAAAT [CACACA_negctrl_site1738] | 9.21
26 | TTTTTTTTTTCTCCTGCATGCAGCATTTATATATTA [TGCATGCA_site390] | 10
27 | TATATATATATATATACATGCATTTTTGTTTGCTTA [TGCATGCA_site256] | 9.57
28 | GACAACGTTTCAATGTGTACATATTTATAATATATA [XGTACX_site2427] | 9.6
29 | ATTGAAAAACCGTTTAGTACATATCATCACGTTTGT [XGTACX_site1295] | 9.68
30 | TATATATATATATGTACACACATCAATCATATTAAC [CACACA_site1946] | 10.1
31 | ATATATCATGCCAAGGGTACAAATGTGTAGTTGAAA [XGTACX_site2820] | 9.74
32 | TTTTTTAAATATTATTTTTATGAGTAAATATATTAT [GTGCAC_negctrl_site277] | 9.28
33 | GACGTGGAAAAAAAAACACACACAAAAAAAAAAAAA [CACACA_site9324] | 10.4
34 | TGAACATCATTTTTATGTACACACACATATACGTTG [XGTACX_site3864] | 10.2
35 | AAAACAAACAAAAAAAAAAAAAAAAATATCAATCTA [TGCATGCA_negctrl_site203] | 9.61
36 | TAATTACCATATGGTACACACATATTTATAGGTATA [CACACA_site7603] | 9.84
37 | CGCGCACCCAGACACACACACACACCCATATATATA [CACACA_site2203] | 10.6
38 | ACGTATAATATGTACACACACATATATACCAAAAAA [CACACA_site4661] | 10.4
39 | GATAAAATAATATATAGTACTTTTTTAAAATAAATA [XGTACX_site522] | 9.5
40 | GAAAAAAAAAAAAAAAGTACATTCTCTATTTCATGT [XGTACX_site3209] | 9.55
41 | ATAAATTTAAATAGGAGTACACAGCTTTATATTTTG [XGTACX_site4176] | 9.71
42 | TATAAAACACACACACATATATATATATATTTATAT [TGCATGCA_negctrl_site48] | 11.2
43 | AATTTTAAATTTAATTTACACACTTTTCATAGCATT [CACACA_site9264] | 9.77
44 | ATTTACAAAAATTTTGTATAAAGGGATTTTAAAATG [TGCATGCA_negctrl_site350] | 9.29

Row | Sequence | gcPBM binding intensity (ln)
45 | TTATTTTATTTTTATACACACATGTTTTAATGTTCA [CACACA_site249] | 10
46 | TATATATACACACACACATGCATGCCGATATATATA [TGCATGCA_site29] | 10.8
47 | AAAAGATATTTGAATATACACACGATTTAAATTTAA [CACACA_site3865] | 9.7
48 | AAAGATTTAATCTATACATGCAAATATATAGAAAAG [TGCATGCA_site373] | 9.63
49 | AATAAAAATAGGAAATGTACACATATATATATATAT [XGTACX_site1853] | 10.1
50 | AGATGCCAAGTATAAAGTACATATCAAAATGTATAT [XGTACX_site456] | 9.75
51 | GAACAAAATTTTATATGTACATAATATTTATATATA [XGTACX_site3667] | 9.55
52 | AGGAGGATAGTTCACAGTACCCAGTAACTCTACGAG [XGTACX_site2008] | 9.48
53 | AAAATTAATGTTGGTTGTACAAAAATTAAATATGGT [XGTACX_site66] | 9.96
54 | GTACAAAGGACTATACATAGAAAAATATATATATAT [XGTACX_negctrl_site164] | 9.63
55 | AAAACTTTTAAAATTTTGTATTCATTCCTTCAACAA [GTGCAC_negctrl_site697] | 9.49
56 | TTTATAATTCCATAATGTACAAATAAAATAAAAAAT [XGTACX_site663] | 9.6
57 | TATATTCAAAATGGTACACACAATATTTAATTGTGC [CACACA_site2631] | 9.72
58 | TGACATATAAAATATTCACACACAAGTTATAGTTCT [CACACA_site9209] | 9.94
59 | ACATTTTCTTATAAATGTACATATATATTATTATAT [XGTACX_site4404] | 9.76
60 | AAAGTATATAGGATACGTACATACATAAATAAATAA [XGTACX_site8216] | 9.77
61 | GTACAAAATTGACAAGTGCAAAAATTAAAAGCAAGA [GTGCAC_site9838] | 10
62 | ATATATATATAAATATGTACATATATTTATTTCTTT [XGTACX_site3784] | 9.69
63 | TATAAAAATAAGCACACACACAAATATAGATTTATT [CACACA_site6558] | 11.3
64 | GTGTGAGCACATTCGGGAGAGTTTTTTTTTTTTTTT [CACACA_negctrl_site1776] | 9.53
65 | ATATATTCTATATATACATGCATATATATTATATGT [TGCATGCA_site185] | 9.68
66 | TGAATAAATATGCAGCGTACATAATCCTCTTAAAAT [XGTACX_site8462] | 9.55

Row | Sequence | gcPBM binding intensity (ln)
67 | GTTAAATGAAAATATGTACACACTTGAAAATTTTTA [CACACA_site2924] | 9.55
68 | ATGCAACTATATATATATATTATATGTATGAATAAT [XGTACX_negctrl_site434] | 9.61
69 | TTAATAGAAATACGTGCACACTAAAGGGAAAACAAT [CACACA_site4923] | 10.1
70 | ACAAGTATTAATTACACACTCAAAAAGAAAAAACAA [CACACA_site2281] | 9.79
71 | AAAAAAAAAAAAAGCACACATATAAATATGAATAAA [CACACA_site1393] | 9.74
72 | AAAAAAAAAAAAAACACACACATACACCCAAAAATG [CACACA_site4223] | 10.3
73 | ATATACACACAAAAACGTACACATATATATATGTAT [XGTACX_site2673] | 10.4
74 | GGTATAATAATATATAGTACACACAAAAATGGAAGT [XGTACX_site7058] | 10
75 | ACAATAAAGAAGTGTACACATATATCAATAAAAAAA [CACACA_site5228] | 9.88
76 | AAAATAATATTTAATACACACATAATTTTAATATAA [CACACA_site4588] | 9.75
77 | TACTTATATTATTTTATTATTAAATTTAAAACGAAA [CACACA_negctrl_site736] | 9.14
78 | AAAAAAAAAAAAAAAAAAAAAAAAATATATAATTTA [CACACA_negctrl_site583] | 9.25
79 | CAATCATGGGTTTACACACACATGCATGTGAAAATT [CACACA_site1349] | 9.94
80 | CATATTAAAAATTATTGTACATATTAATGAATATAA [XGTACX_site2734] | 9.52
81 | GATGATAATAAATTTATATATAATATTATCTTATGT [GTGCAC_negctrl_site672] | 9.62
82 | ATTTTTGCAGTAATTAAATAGACAAAATGAAAAAAA [CACACA_negctrl_site1537] | 9.63
83 | AACCAAACAAATAAACGTACAAACATTACATATATT [XGTACX_site2265] | 9.75
84 | TAATAATAAAAATAAACACACATATATCTGTATTTA [CACACA_site5572] | 9.74
85 | ATATATATATATATAGTGCATAAAATAAGTTTCTAA | 9.72
86 | TATTTATAAACATACGCACACATTAAAATATATATA [CACACA_site6051] | 9.88
87 | GGTGGAAACAATTACACACACACAAAAAAAAAAAAA [CACACA_site3208] | 10.2
88 | AATCACAACAGACACACACACAAAAAAAAAAAAAAA [CACACA_site1442] | 10.1
